The list shows a part of the results. The data describe in vitro nicking of single-stranded DNA by Rep domains for 1 h at 37 °C with 3 µM enzyme; only the middle of the 90-letter strands is printed. Numbers give uncut DNA relative to the enzyme-free pool, as log2; more negative means more cut, near 0 not cut, and no call is made. Counts are relative to all reads, so uncut sequences can rise above 0 when many others are cut.
Experiments:
Test in all cases: uncleaved DNA left, log2 of reads against the no-enzyme library (log2 ratio); higher = less cleavage (more negative = more Rep cleavage of the k-mer); sequences stand for … in CTCGTCCG…ACCGGAGA
[1] = test system: T1, Rep nickase domain of Muscovy duck circovirus
T1 sequence (protein, residues 1-111, tag omitted): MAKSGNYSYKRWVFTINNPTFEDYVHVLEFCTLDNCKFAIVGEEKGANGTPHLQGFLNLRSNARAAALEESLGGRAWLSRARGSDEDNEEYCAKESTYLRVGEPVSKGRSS
Experimental: (§1)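 A pool of 90-nt single-stranded DNAs with seven random bases just before the constant AC of the nick site (name = the seven bases) was cut by 3 µM recombinant His6-SUMO-tagged Rep nickase domain (300 nM DNA, 50 mM HEPES pH 8.0, 50 mM NaCl, 1 mM MnCl2, 1 h, 37 °C, three replicates). Uncut DNA was amplified and sequenced.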

[2] = test system: T2, Rep nickase domain of banana bunchy top virus
T2 sequence (protein, residues 1-94, tag omitted): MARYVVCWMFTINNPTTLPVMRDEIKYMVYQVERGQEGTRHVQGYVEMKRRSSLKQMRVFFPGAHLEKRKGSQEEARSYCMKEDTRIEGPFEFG
Experimental: as §1

[3] = test system: T3, Rep nickase domain of cabbage leaf curl virus
T3 sequence (protein, residues 1-116, tag omitted): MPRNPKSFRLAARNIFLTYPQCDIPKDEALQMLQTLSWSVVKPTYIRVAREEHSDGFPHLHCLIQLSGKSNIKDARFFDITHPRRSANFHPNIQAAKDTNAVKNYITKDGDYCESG
Experimental: as §1

[4] = test system: T4, Rep nickase domain of chickpea chlorotic dwarf virus
T4 sequence (protein, residues 1-124, tag omitted): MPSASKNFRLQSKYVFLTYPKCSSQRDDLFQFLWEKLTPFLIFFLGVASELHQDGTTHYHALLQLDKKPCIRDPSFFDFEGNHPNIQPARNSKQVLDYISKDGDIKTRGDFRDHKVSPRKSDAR
Experimental: as §1

[5] = test system: T5, Rep nickase domain of faba bean necrotic yellows virus
T5 sequence (protein, residues 1-98, tag omitted): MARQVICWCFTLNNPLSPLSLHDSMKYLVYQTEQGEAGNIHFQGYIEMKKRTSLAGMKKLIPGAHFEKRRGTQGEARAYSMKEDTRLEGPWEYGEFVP
Experimental: as §1

[6] = test system: T6, Rep nickase domain of maize striate mosaic virus
T6 sequence (protein, residues 1-117, tag omitted): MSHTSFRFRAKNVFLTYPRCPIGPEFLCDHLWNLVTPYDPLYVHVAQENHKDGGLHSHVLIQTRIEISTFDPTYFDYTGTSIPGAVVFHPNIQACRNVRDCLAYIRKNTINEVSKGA
Experimental: as §1

[7] = test system: T7, Rep nickase domain of porcine circovirus 2
T7 sequence (protein, residues 2-116, tag omitted): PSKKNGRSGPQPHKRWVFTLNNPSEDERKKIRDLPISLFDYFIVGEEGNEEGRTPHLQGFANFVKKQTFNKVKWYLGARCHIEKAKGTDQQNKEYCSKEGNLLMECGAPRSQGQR
Experimental: as §1

[8] = test system: T8, Rep nickase domain of tomato golden mosaic virus
T8 sequence (protein, residues 1-124, tag omitted): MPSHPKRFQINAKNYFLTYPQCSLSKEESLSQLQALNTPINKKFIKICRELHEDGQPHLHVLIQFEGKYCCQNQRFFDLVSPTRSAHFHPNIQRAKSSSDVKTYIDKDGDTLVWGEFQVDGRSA
Experimental: as §1

[9] = test system: T9, Rep nickase domain of tomato yellow leaf curl virus
T9 sequence (protein, residues 1-136, tag omitted): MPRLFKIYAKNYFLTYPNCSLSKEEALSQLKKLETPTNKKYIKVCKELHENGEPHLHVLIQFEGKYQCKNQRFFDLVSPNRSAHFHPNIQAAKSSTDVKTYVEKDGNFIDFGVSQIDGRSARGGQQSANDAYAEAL
Experimental: as §1

[10] = test system: T10, Rep nickase domain of wheat dwarf virus
T10 sequence (protein, residues 1-137, tag omitted): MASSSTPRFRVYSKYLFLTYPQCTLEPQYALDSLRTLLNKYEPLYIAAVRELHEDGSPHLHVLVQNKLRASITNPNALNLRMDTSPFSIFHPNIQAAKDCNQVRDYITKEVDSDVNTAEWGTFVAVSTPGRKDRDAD
Experimental: as §1

Sequence | uncleaved DNA left (log2) [1] | uncleaved DNA left (log2) [2] | uncleaved DNA left (log2) [3] | uncleaved DNA left (log2) [4] | uncleaved DNA left (log2) [5] | uncleaved DNA left (log2) [6] | uncleaved DNA left (log2) [7] | uncleaved DNA left (log2) [8] | uncleaved DNA left (log2) [9] | uncleaved DNA left (log2) [10]
GCAGAAC | 0.0372 | -0.0695 | 0.114 | 0.271 | -0.084 | -0.205 | 0.0684 | -0.0747 | -0.101 | -0.057
GGGGTGA | 0.00217 | 0.142 | 0.818 | 1.81 | 0.0534 | 2.18 | 0.251 | 0.0764 | 0.0949 | 0.207
CGTATGC | -0.0133 | -0.105 | -0.264 | -0.346 | -0.125 | -0.925 | -0.0156 | -0.091 | -0.109 | -0.0849
CCCAGAG | 0.161 | 0.0766 | -0.551 | -0.246 | -0.0475 | -0.694 | 0.218 | 0.11 | 0.21 | 0.0421
AACAGAG | -0.0161 | -0.0274 | -0.75 | -0.476 | 0.0127 | -1.18 | 0.0842 | -0.0519 | -0.00431 | -0.177
CCTGCCC | -0.0101 | -0.0847 | -0.0733 | -0.286 | -0.0558 | -0.399 | -0.0763 | -0.283 | -0.0931 | -0.182
GTCAGGT | -0.0351 | 0.0243 | 0.273 | 0.958 | -0.155 | 1.7 | 0.0393 | -0.0144 | -0.0226 | -0.00497
AGCTGAT | 0.107 | 0.0632 | 0.227 | 1.3 | 0.12 | 1.36 | -0.8 | 0.114 | 0.0284 | 0.0454
AGAGTGG | 0.197 | 0.0186 | -0.0326 | 0.0625 | 0.0837 | -0.4 | 0.099 | 0.126 | -0.0221 | 0.0784
TAGCGAT | 0.117 | 0.0285 | -0.042 | 0.426 | -0.00744 | 0.539 | -1.19 | 0.128 | 0.0213 | -0.0128
AGAAGGA | 0.125 | 0.132 | 0.279 | 0.673 | 0.141 | 0.112 | 0.206 | 0.153 | 0.00727 | 0.141
GTGTATT | -2.1 | -1.05 | 0.122 | 0.441 | -1.23 | 1.66 | -2.83 | -0.105 | 0.0448 | 0.0396
GATCAAC | 0.014 | 0.013 | 0.239 | 0.108 | -0.0723 | 0.788 | 0.0025 | -0.0236 | 0.0748 | 0.0608
GAAAGTC | 0.0127 | -0.0035 | -0.203 | -0.0145 | 0.0836 | 0.324 | 0.0577 | 0.0383 | 0.0356 | 0.0263
CGCAGTA | -0.021 | 0.00617 | 0.0985 | -0.411 | 0.0937 | -0.228 | 0.121 | 0.0882 | 0.00839 | 0.0939
TAGACAG | 0.00865 | 0.0115 | 0.0631 | 0.485 | 0.121 | 0.464 | 0.183 | -0.0585 | 0.0289 | 0.108
TAGGTAA | 0.0589 | -0.0179 | 0.336 | 0.369 | -0.0719 | 1.05 | -0.17 | 0.0129 | -0.0318 | 0.0415
CGTGGAG | -0.00311 | -0.0273 | -0.586 | -0.267 | -0.0718 | -0.754 | 0.177 | -0.084 | 0.0464 | 0.0162
AAGTAGC | 0.228 | 0.077 | -0.277 | -0.361 | 0.154 | -1 | -0.323 | 0.137 | 0.202 | 0.243
ACGTTTT | -2.37 | -0.399 | -0.437 | -2.29 | -0.0679 | -0.437 | -3.26 | -0.102 | -0.102 | -0.111
GATATCC | -0.0866 | 0.0602 | 0.245 | 0.646 | -0.00926 | 0.707 | 0.0913 | -0.0847 | 0.0912 | 0.0372
CTGTACA | -0.0125 | 0.0233 | -0.0214 | -1.62 | -0.00394 | -0.503 | -0.0806 | -0.0979 | 0.0777 | 0.15
CCCTATG | 0.0308 | -0.0528 | -0.627 | -0.456 | 0.0485 | -1.1 | 0.182 | 0.0748 | -0.0713 | -0.0883
ACCGTTG | 0.142 | 0.0626 | -0.391 | -0.321 | 0.257 | -0.696 | 0.278 | 0.145 | 0.25 | 0.15
TGTAAAC | -0.0224 | 0.121 | 0.439 | 0.675 | -0.116 | 1.32 | 0.064 | 0.0352 | 0.0166 | 0.102
TGTCGAC | 0.0282 | -0.134 | 0.0687 | 0.306 | -0.0557 | 0.146 | -0.116 | -0.0802 | 0.0132 | -0.0858
ACCTTAA | -0.0764 | -0.0702 | -0.46 | -0.538 | -0.124 | -0.913 | -0.0644 | -0.0756 | -0.221 | -0.097
TGAGAAT | 0.0236 | 0.0761 | 0.112 | 0.973 | -0.112 | 1.49 | 0.00968 | -0.00123 | -0.0826 | 0.165
TTACGCT | 0.0189 | -0.084 | -1.04 | -2.82 | -0.0872 | -1.36 | -0.209 | -0.173 | 0.0576 | -0.401
CGACGTA | -0.134 | 0.00391 | -0.000417 | 0.565 | -0.0981 | 1.4 | 0.0321 | -0.0502 | -0.159 | 0.0349

From the supplement of paper PMC7826260
